The source of these data is article PMC4336329 (PLoS ONE, 2015).

The whole screen tested about 310,000 compounds, of which about 14,000 (4.5%) showed an effect of 50% or more. Effects have a minus sign here. The list shows a part of the results.
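Further: peak tail current of the secondary pulse compared with the same well before compound.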

The experiment deals with human ether-à-go-go-related gene (hERG) potassium channel (human, UniProt Q12809). In words: primary screen, population patch clamp on CHO cells stably expressing hERG.
Chain of human ether-à-go-go-related gene (hERG) potassium channel (Q12809 whole entry, looked up): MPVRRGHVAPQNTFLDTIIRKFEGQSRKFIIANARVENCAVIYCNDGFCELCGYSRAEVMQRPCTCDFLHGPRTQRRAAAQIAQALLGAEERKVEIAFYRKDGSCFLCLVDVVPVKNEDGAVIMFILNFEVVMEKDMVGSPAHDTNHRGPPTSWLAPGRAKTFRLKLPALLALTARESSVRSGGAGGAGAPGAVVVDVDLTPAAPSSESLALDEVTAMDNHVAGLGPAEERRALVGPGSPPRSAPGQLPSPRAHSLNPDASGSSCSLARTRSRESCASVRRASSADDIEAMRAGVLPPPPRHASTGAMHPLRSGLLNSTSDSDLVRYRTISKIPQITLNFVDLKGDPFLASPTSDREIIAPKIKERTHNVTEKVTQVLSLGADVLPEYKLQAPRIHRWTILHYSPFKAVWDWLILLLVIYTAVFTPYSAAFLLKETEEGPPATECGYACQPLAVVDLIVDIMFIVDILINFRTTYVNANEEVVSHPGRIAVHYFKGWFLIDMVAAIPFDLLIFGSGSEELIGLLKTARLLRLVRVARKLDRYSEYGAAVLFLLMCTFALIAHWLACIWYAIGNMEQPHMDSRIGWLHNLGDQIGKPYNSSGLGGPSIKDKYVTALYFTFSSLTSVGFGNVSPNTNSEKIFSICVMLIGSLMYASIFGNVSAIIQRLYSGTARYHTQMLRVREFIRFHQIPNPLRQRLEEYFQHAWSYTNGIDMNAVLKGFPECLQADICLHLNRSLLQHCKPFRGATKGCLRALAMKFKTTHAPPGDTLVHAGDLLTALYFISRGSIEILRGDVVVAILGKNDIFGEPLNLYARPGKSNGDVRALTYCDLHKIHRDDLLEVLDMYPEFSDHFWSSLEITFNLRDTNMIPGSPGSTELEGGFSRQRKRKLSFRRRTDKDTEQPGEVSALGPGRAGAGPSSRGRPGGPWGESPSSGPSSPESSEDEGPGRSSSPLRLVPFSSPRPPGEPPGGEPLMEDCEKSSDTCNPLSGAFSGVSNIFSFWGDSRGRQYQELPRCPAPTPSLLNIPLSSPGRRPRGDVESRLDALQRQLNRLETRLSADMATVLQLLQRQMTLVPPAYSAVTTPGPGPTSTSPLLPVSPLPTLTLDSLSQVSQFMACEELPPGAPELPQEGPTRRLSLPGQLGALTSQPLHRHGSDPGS
For `CC1=CC(=O)C(C(C)C)=CC1=NC(=O)c1ccc(C)cc1`, the “hERG current change (%, negative = inhibition) at 10uM” value was 52.7%.

As to `CC(=O)Nc1ccc(NC(=O)C2CCCN2S(=O)(=O)c2cccc(C(F)(F)F)c2)cc1` (stereo not drawn), the “hERG current change (%, negative = inhibition) at 10uM” value is reported as -11.3%.

With `CCCCC(=O)NC(c1ccc(Cl)cc1Cl)c1ccc2cccnc2c1O` (stereo not drawn), the “hERG current change (%, negative = inhibition) at 10uM” value worked out at 13.5%.

Regarding `N=c1c(C(=O)NCc2ccc(F)cc2)cc2c(=O)n3ccccc3nc2n1CCCN1CCOCC1`, the “hERG current change (%, negative = inhibition) at 10uM” value is recorded as -83%.

Regarding `COc1ccc(C(=O)NN/C(C)=C/C(=O)C(F)(F)C(F)(F)C(F)(F)F)cc1`, the “hERG current change (%, negative = inhibition) at 10uM” value is given as -6.52%.

As to `CC(C)(C)c1ccc(C(=O)c2c[nH]c(C(=O)NCCCn3ccnc3)c2)cc1`, the “hERG current change (%, negative = inhibition) at 10uM” value is reported as -71.3%.

As for `Cc1ccccc1OCC(=O)Nc1ccccc1N1CCOCC1`, the “hERG current change (%, negative = inhibition) at 10uM” value is -23.2%.

As to `Cc1cc(C)cc(OCC(=O)Nc2cccc(-c3nc4ncccc4o3)c2)c1`, the “hERG current change (%, negative = inhibition) at 10uM” value is recorded as 2.81%.

Consider `COC(=O)C(Cc1c[nH]c2ccccc12)NC(=O)C(C)C` (stereo not drawn), for which the “hERG current change (%, negative = inhibition) at 10uM” value was 5.3%.

For `O=C(Nc1cccc(-c2nc3ccccc3[nH]2)c1)c1cccc(NC(=O)c2ccco2)c1`, the “hERG current change (%, negative = inhibition) at 10uM” value worked out at 15.2%.

As to `COCC(=O)Nc1nnc(C2CCCCC2)s1`, the “hERG current change (%, negative = inhibition) at 10uM” value was -1.63%.

For `O=C(COc1cccc2ccccc12)Nc1cc(S(=O)(=O)N2CCOCC2)ccc1N1CCOCC1`, the “hERG current change (%, negative = inhibition) at 10uM” value was -12.5%.

`Cc1ccc(-n2ncc(C(=O)O)c2C2CCN(C(=O)OC(C)(C)C)CC2)cc1`: the “hERG current change (%, negative = inhibition) at 10uM” value was -3.86%.

Take `Cc1cc(Br)ccc1SCC(=O)OCC(=O)NCc1ccco1`: the “hERG current change (%, negative = inhibition) at 10uM” value stood at 0.539%.

For `CCC(CC)C(=O)Nc1nnc(S(=O)(=O)Nc2ccccc2C)s1`, the “hERG current change (%, negative = inhibition) at 10uM” value worked out at 15.7%.

Take `O=C(CSc1nc2ccccc2c(=O)n1CC1CCCO1)NCCc1ccccc1` (stereo not drawn): the “hERG current change (%, negative = inhibition) at 10uM” value is listed as 7.48%.

Take `O=C(NC1CC1)c1ccc2c(c1)C1C3CCC(C3)C1C(c1ccccc1)N2` (stereo not drawn): the “hERG current change (%, negative = inhibition) at 10uM” value was -5.38%.

Regarding `COc1ccccc1S(=O)(=O)Cc1ccc(C(=O)NC2CC2)o1`, the “hERG current change (%, negative = inhibition) at 10uM” value stood at 18.5%.

As for `CCc1ccccc1NC1c2ccccc2C(=O)N1Cc1ccco1` (stereo not drawn), the “hERG current change (%, negative = inhibition) at 10uM” value was -23.7%.

Take `N#CCn1cnc2sc(-c3ccccc3)cc2c1=O`: the “hERG current change (%, negative = inhibition) at 10uM” value is reported as 13.1%.

Consider `CCOc1ccc(C(C)(C)C)cc1S(=O)(=O)n1nc(C)cc1C`, for which the “hERG current change (%, negative = inhibition) at 10uM” value is listed as -18.9%.

For `Cn1cccc1/C=C(\C#N)C(N)=S`, the “hERG current change (%, negative = inhibition) at 10uM” value is given as 8.65%.

Take `COC(=O)Cn1c(CCC(=O)O)ccc1-c1ccccc1`: the “hERG current change (%, negative = inhibition) at 10uM” value is 10.8%.

Regarding `CCCNC(=O)COC(=O)c1ccc(N2CCCC2)c([N+](=O)[O-])c1`, the “hERG current change (%, negative = inhibition) at 10uM” value is recorded as -14.6%.

Consider `Cc1[nH]c2ccccc2c1C(=O)CN1CCN(c2ccc(Cl)cc2)CC1`, for which the “hERG current change (%, negative = inhibition) at 10uM” value worked out at 12.2%.

Regarding `Cc1cc(NC(=O)C(C)SCC(=O)Nc2nnc(CC(C)C)s2)no1` (stereo not drawn), the “hERG current change (%, negative = inhibition) at 10uM” value was 8.03%.

For the molecule `N#CC1=C(N)Oc2n[nH]c(-c3cccnc3)c2C1c1ccc([N+](=O)[O-])o1` (stereo not drawn), the “hERG current change (%, negative = inhibition) at 10uM” value was -1.77%.

For the molecule `COc1ccccc1C(CNC(=O)c1cccc(NS(=O)(=O)c2ccc(Br)cc2)c1)N(C)C` (stereo not drawn), the “hERG current change (%, negative = inhibition) at 10uM” value is given as -51.7%.

`CC(=O)C1C(=O)c2c(cccc2[N+](=O)[O-])C1=Nc1ccccc1C` (stereo not drawn): the “hERG current change (%, negative = inhibition) at 10uM” value is -6.73%.

In the case of `COc1ccc(Br)cc1/C=N/NC(=O)c1cc(OC)c(OC)c(OC)c1`, the “hERG current change (%, negative = inhibition) at 10uM” value is 7.09%.

On to `Cn1cc(NC(=O)OCc2ccc(Cl)cc2)c(C(F)(F)F)n1`, for which the “hERG current change (%, negative = inhibition) at 10uM” value is on record as 6.82%.

Take `COC(=O)c1cc(NC(=O)CN2CCC(C(N)=O)(N3CCCCC3)CC2)cc(C(=O)OC)c1`: the “hERG current change (%, negative = inhibition) at 10uM” value is listed as -8.63%.

As to `C[C@H]1CC[C@@H]2[C@@H](C)[C@H]3[C@H](C[C@H]4[C@@H]5CC=C6C[C@@H](O[C@@H]7O[C@H](CO)[C@H](O)[C@H](O[C@@H]8O[C@H](CO)[C@@H](O)[C@H](O)[C@H]8O)[C@H]7O[C@@H]7O[C@@H](C)[C@H](O)[C@@H](O)[C@H]7O)CC[C@]6(C)[C@H]5CC[C@]34C)N2C1`, the “hERG current change (%, negative = inhibition) at 10uM” value turned out to be 20.4%.

`CC(C)CCNC(=O)C(C)N(Cc1ccc(F)cc1)C(=O)c1ccc(CN2CCOCC2)o1` (stereo not drawn): the “hERG current change (%, negative = inhibition) at 10uM” value was -0.694%.

In the case of `C[N+]1=C2CCCCCN2C(O)(c2ccccc2)C1.[I-]` (stereo not drawn), the “hERG current change (%, negative = inhibition) at 10uM” value is given as 13.6%.

Turning to `CC(C#N)Sc1nnc(-c2ccccc2F)n1C1CC1` (stereo not drawn), the “hERG current change (%, negative = inhibition) at 10uM” value is on record as 18.2%.

For `Cc1ccccc1CC(=O)N1CC(C)OC(C)C1` (stereo not drawn), the “hERG current change (%, negative = inhibition) at 10uM” value is 1.27%.

On to `O=C1c2ccccc2C(=O)N1CC(O)Cn1nnc2ccccc21` (stereo not drawn), for which the “hERG current change (%, negative = inhibition) at 10uM” value stood at 3.02%.

In the case of `NC1=NC2(CCCC2)n2c(nc3ccccc32)N1`, the “hERG current change (%, negative = inhibition) at 10uM” value is listed as -3.51%.

Consider `CC(C)(C)c1ccc(C(=O)N2CCC(C(=O)NC3CC3)CC2)cc1`, for which the “hERG current change (%, negative = inhibition) at 10uM” value is listed as -2.74%.

`CCc1ccccc1OCC(=O)N(CC)CC(=O)NCc1ccc(F)cc1`: the “hERG current change (%, negative = inhibition) at 10uM” value is listed as 8%.

For the molecule `COc1ccc(-c2noc(CSc3nc4sc(C)c(C)c4c(=O)n3-c3ccccc3)n2)cc1`, the “hERG current change (%, negative = inhibition) at 10uM” value is given as -13.7%.
